Experimental data: article PMC4336329 (PLoS ONE, 2015)
About 2,200 (0.71%) of roughly 310,000 compounds showed an effect of 50% or more. The effect is printed as a negative number. The list shows a part of the results.

molecular target: human ether-à-go-go-related gene (hERG) potassium channel (human, UniProt Q12809); assay: primary screen, population patch clamp on CHO cells stably expressing hERG
Sequence (Q12809 whole entry, looked up): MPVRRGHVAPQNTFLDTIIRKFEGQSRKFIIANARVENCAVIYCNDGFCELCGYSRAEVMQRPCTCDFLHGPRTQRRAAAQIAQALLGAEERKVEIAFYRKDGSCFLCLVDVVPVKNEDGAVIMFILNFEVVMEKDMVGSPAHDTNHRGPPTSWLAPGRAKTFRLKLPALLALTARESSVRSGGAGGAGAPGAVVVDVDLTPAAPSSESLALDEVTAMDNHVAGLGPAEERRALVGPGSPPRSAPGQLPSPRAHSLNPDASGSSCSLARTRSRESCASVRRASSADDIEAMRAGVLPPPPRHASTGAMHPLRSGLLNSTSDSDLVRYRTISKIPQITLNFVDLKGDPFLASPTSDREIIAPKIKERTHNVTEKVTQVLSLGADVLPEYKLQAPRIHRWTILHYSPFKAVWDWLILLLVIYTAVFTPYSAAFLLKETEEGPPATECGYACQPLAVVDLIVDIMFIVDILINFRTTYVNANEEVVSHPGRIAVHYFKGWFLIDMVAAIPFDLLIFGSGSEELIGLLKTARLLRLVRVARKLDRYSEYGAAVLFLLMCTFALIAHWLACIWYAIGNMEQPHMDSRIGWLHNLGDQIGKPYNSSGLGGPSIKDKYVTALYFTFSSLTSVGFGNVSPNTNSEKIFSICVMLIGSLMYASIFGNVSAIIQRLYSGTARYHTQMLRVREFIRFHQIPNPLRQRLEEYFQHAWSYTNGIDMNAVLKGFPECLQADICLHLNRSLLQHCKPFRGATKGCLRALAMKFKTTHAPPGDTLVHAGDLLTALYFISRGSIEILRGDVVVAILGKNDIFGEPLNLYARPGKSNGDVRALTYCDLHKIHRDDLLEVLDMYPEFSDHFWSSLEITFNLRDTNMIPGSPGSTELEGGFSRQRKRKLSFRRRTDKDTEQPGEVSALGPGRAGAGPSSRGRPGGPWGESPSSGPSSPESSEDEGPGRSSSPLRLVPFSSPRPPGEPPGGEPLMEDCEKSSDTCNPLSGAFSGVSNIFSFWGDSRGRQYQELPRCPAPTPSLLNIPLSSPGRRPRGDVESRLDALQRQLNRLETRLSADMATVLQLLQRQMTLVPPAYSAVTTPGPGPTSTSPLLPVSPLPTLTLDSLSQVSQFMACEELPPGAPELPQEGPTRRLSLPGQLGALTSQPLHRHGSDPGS

Compound | hERG current change (%, negative = inhibition) at 1uM
CCCCNC(=O)C1CC(c2ccccc2[N+](=O)[O-])=NO1 (centres unmarked) | 14.5%
CCOc1cccc2c1OC1(CCCCC1)N1N=C(c3cccnc3)CC21 (centres unmarked) | 8.98%
CC1CCCC(NC(=O)C2CCN(S(=O)(=O)N3CCCCCC3)CC2)C1C (centres unmarked) | 9.63%
CCN(CC)c1ccc(NC(=O)c2cnccn2)cc1S(=O)(=O)Nc1ccc(OC)cc1 | -9.2%
COc1cc(/C=C(\NC(C)=O)C(=O)NC(C)(C)C)ccc1OC(C)=O | 20.1%
C/C(CC(=O)N(C(C)C)C(C)C)=N\NC(=O)COc1ccc(Br)cc1Br | -12.6%
CCOC(=O)N1CCN(S(=O)(=O)c2ccc(C(=O)N(CCCN(C)C)c3nc4cc(OC)ccc4s3)cc2)CC1.Cl | -17.4%
Cn1ccnc1SCC(=O)Nc1cccc(S(=O)(=O)N2CCCCC2)c1 | -3.72%
CN(CC(=O)Nc1cccc(F)c1)C(=O)CSc1nc2ccccc2s1 | 5.82%
OCC[C@H]1C[C@H](O)[C@@H](O)[C@@]2(OCCCc3ccccc32)O1 | 8.1%
Cc1cccc(OCC(O)Cn2c(NCc3cccnc3)nc3c2c(=O)[nH]c(=O)n3C)c1 (centres unmarked) | 16.1%
CS(=O)(=O)c1ccc(Cl)c(NC(=O)COC(=O)CCCN2C(=O)c3cccc4cccc(c34)C2=O)c1 | 0.589%
Cc1ccc(S(=O)(=O)Cc2ccc(C(=O)N3CCCCCC3)o2)cc1 | -7.22%
Cc1cccc(N=Nc2c(C)c(C#N)c(O)[nH]c2=O)c1 | 15.6%
CC(C)n1c(SCC(N)=O)nc2c1c(=O)n(C)c(=O)n2C | 7.73%
CN(c1cccc(NC(=O)c2ccc(Cl)c(S(=O)(=O)Nc3ccccc3)c2)c1)S(C)(=O)=O | -7.24%
O=C(N/C(=C/c1cccc([N+](=O)[O-])c1)C(=O)N1CCCCC1)c1cccs1 | 1.23%
CSc1ccccc1C(=O)Nc1nccs1 | -5.6%
CCOC(=O)c1c(C)n(CCO)c2ccc(O)cc12 | -1.23%
COc1ccc(NC(=S)N(CCCN2CCOCC2)Cc2ccccn2)cc1 | 0.885%
COc1ccc(-c2[nH]c(-c3ccc4c(c3)OCO4)nc2-c2ccccc2)cc1 | 0.88%
COc1ccc(S(=O)(=O)NCc2ccccn2)cc1NC(=O)c1ccccc1C | 9.42%

Compound | hERG current change (%, negative = inhibition) at 1uM
CN1CCN(c2ccc(NC(=O)c3ccc(Cl)cc3)cn2)CC1 | -13.5%
COc1ccccc1CNc1nc(C)c(C(C)=O)s1 | 12.8%
COc1ccccc1N1CCN(C(=O)CCSCc2ccccc2F)CC1 | 13.8%
Cc1ccc(S(=O)(=O)N2CCCC(C(=O)N(Cc3cccs3)C3CC3)C2)cc1 (centres unmarked) | -0.286%
CS(=O)(=O)N1CCN(C(=O)c2ccccc2F)CC1 | 8.61%
Cc1nc(S(=O)(=O)Nc2ccccc2C(=O)NCC2CC2)cn1C | 17.6%
O=C(c1cc2c(s1)CCCCCC2)N1CCC2(CC1)OCCO2 | 9.04%
COCCCN1C(=O)C(=O)/C(=C(/O)c2ccc(S(=O)(=O)N3CCOCC3)cc2)C1c1cccc(Cl)c1 (centres unmarked) | 10.7%
Cc1cccc(NC(=O)c2ccc([N+](=O)[O-])o2)n1 | 3.03%
COc1cc2c(cc1OC)C(c1ccccc1)NCC2 (centres unmarked) | 10.2%
CCC(C)Sc1nc2ccccc2n1CC(=O)O (centres unmarked) | 8.32%
O=C(NNc1c(Cl)cncc1Cl)c1cccs1 | 14.5%
COc1cccc(N2C(=O)C(c3ccccc3)=C(c3nc4ccccc4s3)C2NC(C)=O)c1 (centres unmarked) | 6.19%
CCCOc1ccc(-c2c(C(=O)N/N=C/c3ccc(OC)cc3)nnn2-c2nonc2N)cc1 | 1.58%
CC(=O)c1sc(NC(=O)CN2C(=O)C3CC=CCC3C2=O)nc1-c1ccccc1 (centres unmarked) | 10.4%
CN(C(=O)COc1ncnc2sccc12)c1ccccc1 | 5.67%
O=C1c2ccccc2C(O)(c2ncc[nH]2)N1CCc1ccccc1 (centres unmarked) | 0.576%
Clc1ccc(C(Cn2ccnc2)OCc2c(Cl)cccc2Cl)c(Cl)c1 (centres unmarked) | 15.6%
Cc1ccc(OCC(=O)N2CCN(C(=O)c3cccs3)CC2)cc1 | -6.29%
Cc1ccc(CCNC(=O)c2cc(S(=O)(=O)N3CCOCC3)cn2C)cc1 | 10.4%
Cc1ccc(/C=N/NC(=O)c2nnn(-c3nonc3N)c2CN(C)c2ccccc2)s1 | 11.2%
O=C(Nc1cccnc1)c1cc2cc(Br)ccc2o1 | 19.5%
